# According to PubChem BioAssay AID1460 (National Center for Advancing Translational Sciences (NCATS), 2008):
# Where “and” joins values, the source holds several entries; their conditions need not be identical. Equal values may be shown once. Among all 270,000 compounds or so, about 5,800 (2.1%) were called active. Another 16% or so got no clear call; they are omitted. Calls follow the shape of the dose curve; as a rule, active = well fitted inhibition curve with a large enough effect; inconclusive = small, poorly fitted or top-dose-only effect; inactive = flat fitted curve, though single readings scatter. The entries are a selection whose mix differs from that of the whole data set. More than one record can exist for a structure, and the calls need not agree.
# Target: Microtubule-associated protein tau (Homo sapiens) (UniProt P10636)
# Experiment: qHTS for Inhibitors of Tau Fibril Formation, Thioflavin T Binding; also: nearly all actives have a fitted effect of over 55% in size
# Details: recombinant tau K18 P301L (four-repeat tau fragment), heparin-induced fibrillization, ThT fluorescence; series mostly up to 57.4 µM; activity, negative = inhibition: at the top concentration
# Excerpt: NIH Molecular Libraries Probe Production Network [MLPCN]
# NIH Chemical Genomics Center [NCGC]
# Assay Provider: Carlo Ballatore, University of Pennsylvania
# The microtubule-associated protein tau is an abundant protein in the axons of neurons that stabilizes microtubules. With its ability to modulate microtubule dynamics, tau contributes directly or indirectly, to key structural and regulatory cellular functions. Particularly important is the influence tau exerts on axonal transport, which allows signaling molecules, trophic factors and other essential cellular constituents to travel along the axons. Under pathological conditions, tau becomes sequestered into insoluble aggregates called neurofibrillary tangles. This phenomenon is believed to have pathological consequences by promoting axonal transport deficits that ultimately lead to synaptic dysfunction and neuronal loss. To identify inhibitors of tau aggregation, a heparin-induced tau fibril formation assay was used that employed a recombinantly expressed fragment of tau, K18 (Q242-E372), bearing a P301L mutation (Gustke et al. 1994; Hong et al. 1998). This assay monitors tau fibrillization by Thioflavin T (ThT) fluorescence.
# Gustke, N., B. Trinczek, et al. (1994). "Domains of tau protein and interactions with microtubules." Biochemistry 33(32): 9511-22.
# Hong, M., V. Zhukareva, et al. (1998).
# Li, W. and V. M. Lee (2006).
# von Bergen, M., S. Barghorn, et al. (2001). "Mutations of tau protein in frontotemporal dementia promote aggregation of paired helical filaments by enhancing local beta-structure." J Biol Chem 276(51): 48165-74.
# NCGC Assay Protocol Summary:
# For screening, 2 uL/well human K18 P301L (15 uM unlabeled and 0.24 uM Alexa 594-labeled tau, final concentrations) in reagent buffer (100 mM sodium acetate pH 7) was dispensed into black solid 1536-well plates (Grenier) using a solenoid-based dispenser. Following transfer of 23 nL compound or DMSO vehicle by a pin tool, 2 uL/well heparin (20 uM final concentration) in reagent buffer was added and the plate centrifuged 15 s at 1000 RPM. Plates were incubated 6 hr at 37 C and then 1 uL/well ThT (30 uM final concentration) was added. After a 1 hr ambient incubation, the plates were read by an Envision (Perkin Elmer) to monitor ThT fluorescence (450/8 nm excitation and 510/23 nm emission).
# Keywords: NIH Roadmap, MLPCN, MLI, MLSMR, NCGC, qHTS, tau, tauopathies, Alzheimer's disease, fibril, neurodegeneration, aggregation
# % is scaled to controls: 0 for no effect and ±100 for the full control effect; potency is read from the fitted curve at half-maximal effect.
# Sequence of UniProt P10636 (P10636 whole entry, looked up): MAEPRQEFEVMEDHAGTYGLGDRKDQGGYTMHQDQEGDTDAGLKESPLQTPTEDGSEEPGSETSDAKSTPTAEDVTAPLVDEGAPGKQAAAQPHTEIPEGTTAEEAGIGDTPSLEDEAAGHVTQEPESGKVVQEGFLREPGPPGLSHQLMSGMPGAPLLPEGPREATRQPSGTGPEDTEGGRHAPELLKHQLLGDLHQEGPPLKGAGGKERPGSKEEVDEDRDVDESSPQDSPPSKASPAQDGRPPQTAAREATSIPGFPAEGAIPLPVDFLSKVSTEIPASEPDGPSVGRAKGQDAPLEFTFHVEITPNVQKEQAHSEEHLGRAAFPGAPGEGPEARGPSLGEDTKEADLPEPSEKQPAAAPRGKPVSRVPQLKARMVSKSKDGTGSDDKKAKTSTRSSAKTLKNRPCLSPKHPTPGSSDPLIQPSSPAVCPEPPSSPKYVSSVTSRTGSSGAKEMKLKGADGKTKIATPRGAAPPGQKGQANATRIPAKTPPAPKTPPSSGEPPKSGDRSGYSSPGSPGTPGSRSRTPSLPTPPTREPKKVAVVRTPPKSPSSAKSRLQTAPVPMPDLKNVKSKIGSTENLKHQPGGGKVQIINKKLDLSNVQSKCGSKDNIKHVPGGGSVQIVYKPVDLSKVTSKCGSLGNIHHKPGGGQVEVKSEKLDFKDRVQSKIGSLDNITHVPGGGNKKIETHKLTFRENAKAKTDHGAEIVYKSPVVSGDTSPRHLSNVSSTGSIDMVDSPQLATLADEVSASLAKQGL
Structure (SMILES),Potency,"activity, negative = inhibition"
Cc1ccccc1N1C(=O)CC(=O)NC1=O,active: 15.8 µM,–
CC(=O)C1=C(O)C2C3c4c[nH]c5cccc(c45)CC3C(C)(C)N2C1=O (stereo unspecified),–,inactive: -23%
COc1ccc(CCn2c(NN=C3CCCCC3)nc3c2c(=O)[nH]c(=O)n3C)cc1,active: 28.2 µM,–
CN[C@@H]1C[C@@H](c2ccc(Cl)c(Cl)c2)c2ccccc21,–,inactive: -19.7%
O=[N+]([O-])c1ccc(Sc2nc3ccccc3o2)c([N+](=O)[O-])c1,active: 14.1 µM,–
Cc1nonc1OCCNc1ccc([N+](=O)[O-])c2cccnc12,active: 7.08 µM,–
COC(=O)[C@@]1(Cc2ccc(F)cc2)[C@H]2c3cc(C(=O)N(C)C)[nH]c3C[C@H]2CN1C(=O)c1ccccc1,–,inactive: -11.2%
NC1CC1c1ccccc1 (stereo unspecified),–,inactive: -14.2%
c1cc2c(cc1[C@H]1OC[C@H]3[C@@H]1CO[C@@H]3c1ccc3c(c1)OCO3)OCO2,–,inactive: -11.7%
CC(=O)[C@@]1(O)CC[C@H]2[C@@H]3C[C@H](C)C4=CC(=O)CC[C@]4(C)[C@H]3CC[C@@]21C,–,inactive: -20.3%
CN(CCc1ccc(Cl)c(Cl)c1)[C@H]1CCCC[C@H]1N1CCCC1,–,inactive: -7.66%
CC(=O)[C@]1(O)CCC2C3CCC4=CC(=O)CC[C@@]4(C)C3CC[C@]21C (stereo partly specified),–,inactive: -16.4%
CC(C)CC(N(C)C)C1(c2ccc(Cl)cc2)CCC1 (stereo unspecified),–,inactive: -0.0402%
CCCN(CCC)[C@@H]1CCc2ccc(O)cc2C1,inactive,–
Oc1ccc2c3c1O[C@H]1c4[nH]c5ccccc5c4C[C@@]4(O)C(C2)N(CC2CC2)CCC314 (stereo partly specified),inactive,–
O=C1C=C2C=C[C@@H]3C[C@@]2(O1)[C@H]1CCCCN31,inactive,–
COc1ccc(OC)c(C(c2c(O)c3ccccc3oc2=O)c2c(C)n(C)n(-c3ccccc3)c2=O)c1 (stereo unspecified),–,inactive: -12.5%
CC[C@]1(O)CC(O[C@@H]2CC(N(C)C)C(O)C(C)O2)c2c(cc3c(c2O)C(=O)c2c(O)cccc2C3=O)C1C(=O)OC (stereo partly specified),active: 8.91 µM,–
CC(C(=O)O)c1ccc(-c2ccccc2)c(F)c1 (stereo unspecified),inactive,–
Cc1cc(C)cc(N2C(=O)NC(=O)/C(=C\c3cccn3-c3ccc(Cl)cc3)C2=O)c1,–,inactive: -3.1%
CCCC/C(C)=C/[C@@H](NP(=O)(c1ccccc1)c1ccccc1)c1ccccc1,–,inactive: 7.7%
Oc1ccc2c3c1O[C@H]1c4[nH]c5c(c4C[C@@]4(O)[C@@H](C2)N(CC2CC2)CC[C@]314)C[C@@]1(O)[C@H]2Cc3ccc(O)c4c3[C@@]1(CCN2CC1CC1)[C@H]5O4,–,inactive: -18%
COc1ccc2[nH]cc(CCN)c2c1,inactive,–
CN1CC[C@@]23CCCCC2C1Cc1ccc(O)cc13 (stereo partly specified),–,inactive: -14.2%

Structure (SMILES),Potency,"activity, negative = inhibition"
CC(=O)[C@H]1CC[C@H]2[C@@H]3CCC4=CC(=O)CC[C@]4(C)[C@H]3CC[C@]12C,inactive,–
CN1CCN(C(=O)O[C@@H]2c3nccnc3C(=O)N2c2ccc(Cl)cn2)CC1,–,inactive: -2.58%
Cc1o[nH]c(=O)c1C[C@@H](N)C(=O)O,–,inactive: -9.37%
C=C[C@H]1CN2CCC1C[C@@H]2C(O)c1ccnc2ccccc12 (stereo partly specified),–,inactive: 3.85%
COc1ccc(Cc2nccc3cc(OC)c(OC)cc23)cc1OC,inactive,–
O=C1CSC(c2ccccc2Cl)c2cc(Cl)ccc2N1 (stereo unspecified),–,inactive: -11.4%
C=C(C)CN1CC[C@@]23c4c5ccc(O)c4O[C@H]2c2[nH]c4ccccc4c2C[C@]3(O)[C@@H]1C5,–,inactive: -2.32%
CCOC(=O)c1cc2c(cn1)[nH]c1ccccc12,inactive,–
CCCN(CCC)C1CCc2ccc(O)cc2C1 (stereo unspecified),–,inactive: 1.41%
O=C(O)CC1OCC=C2CN3CCC45C6=CC(=O)C(=O)C([N+](=O)[O-])=C6NC4C1C2CC35 (stereo unspecified),active: 7.08 µM,–
CN1CCCC1c1cccnc1 (stereo unspecified),–,inactive: -1.01%
CC(C)N1C(=O)/C(=C/C=C/c2ccco2)C(=O)N(Cc2ccco2)C1=O,active: 28.2 µM,–
Nc1nc2ccc(Cl)cc2c2nc(-c3ccco3)nn12,inactive,–
CN1CCC[C@@H]1c1cccnc1,–,inactive: -5.76%
CN(C(=O)Cc1ccc(Cl)c(Cl)c1)C(CN1CCCC1)c1cccc(OCC(=O)O)c1 (stereo unspecified),–,inactive: -1.02%
COc1ccc(N=Nc2c(O)[nH]c(=S)[nH]c2=O)cc1,active: 2.82 µM,–
CN1CCN(C(=O)OC2c3nccnc3C(=O)N2c2ccc(Cl)cn2)CC1 (stereo unspecified),inactive,–
NS(=O)(=O)c1cc(C2(O)NC(=O)c3ccccc32)ccc1Cl (stereo unspecified),–,inactive: -7.32%
CC12CCC(=O)C=C1CCC1C2CCC2(C)C(O)CCC12 (stereo unspecified),–,inactive: -2.19%
NCc1cc(=O)[nH]o1,inactive,–
C[C@H](CCC(=O)O)[C@H]1CC[C@@H]2[C@H]3CC[C@H]4C[C@H](O)CC[C@]4(C)[C@@H]3CC[C@@]21C,inactive,–
COc1cc(CNC(=O)CCCC/C=C\C(C)C)ccc1O,inactive,–
CC(=O)C1=C(O)[C@@H]2[C@@H]3c4c[nH]c5cccc(c45)C[C@@H]3C(C)(C)N2C1=O,–,inactive: -14.4%
CC[C@H]1CN2CCc3cc(OC)c(OC)cc3[C@@H]2C[C@@H]1C[C@H]1NCCc2cc(OC)c(OC)cc21,inactive,–

Structure (SMILES),Potency,"activity, negative = inhibition"
CNC(C)C(O)c1ccccc1 (stereo unspecified),–,inactive: 1.68%
O=C1OC(c2cc(I)c(O)c(I)c2)(c2cc(I)c(O)c(I)c2)c2ccccc21,active: 12.6 µM,–
C=CCN1C(=O)/C(=C/c2ccc(N3CCOCC3)o2)C(=O)NC1=S,–,inactive: 0.0651%
CN1CC[C@@]23CCCC[C@@H]2[C@@H]1Cc1ccc(O)cc13,–,inactive: 3.71%
O=C1NC(=O)N(Cc2ccccc2)C(=O)/C1=C\N1CCCc2ccccc21,–,inactive: -0.174%
CCC(COC(=O)c1cc(OC)c(OC)c(OC)c1)(c1ccccc1)N(C)C (stereo unspecified),–,inactive: -0.299%
Cc1o[nH]c(=O)c1CC(N)C(=O)O (stereo unspecified),–,inactive: -3.84%
C[C@]12CC[C@@H]3c4ccc(O)c(O)c4CC[C@H]3[C@@H]1CC[C@@H]2O,active: 14.1 µM,–
CCC(CO)NC(=O)C1C=C2c3cccc4[nH]cc(c34)CC2N(C)C1 (stereo unspecified),inactive,–
COC1=C[C@]23CCCN2CCc2cc4c(cc2[C@@H]3[C@@H]1O)OCO4,–,inactive: 0.96%
C=CC1CN2CCC1CC2C(O)c1ccnc2ccccc12 (stereo unspecified),–,inactive: 4.68%
CCCCC/C=C\C/C=C\C/C=C\C/C=C\CCCC(=O)O,inactive,–
O=c1[nH]c2ccccc2n1C1CCN(CCCC(c2ccc(F)cc2)c2ccc(F)cc2)CC1,inactive,–
CN[C@H](C)[C@H](O)c1ccccc1,–,inactive: -9.08%
COc1ccc2c(c1)CCC1C2CC[C@@]2(C)C1CC[C@@H]2NCCCCCCN1C(=O)C=CC1=O (stereo partly specified),–,inactive: -12.6%
CN(C)CCC=C1c2ccccc2CCc2ccccc21,inactive,–
CC(=O)OC1C2C(OC(=O)Cc3ccccc3)C(C)CC2(OC(C)=O)C(=O)/C(C)=C/C2C(CC[C@@]13CO3)C2(C)C (stereo partly specified),–,inactive: 3.95%
NN=C(N)N,inactive,–
CN[C@@H]1C[C@H](c2ccc(Cl)c(Cl)c2)c2ccccc21,–,inactive: -23.1%
N#CC(C#N)=NNc1ccc(OC(F)(F)F)cc1,active: 3.98 µM and active: 7.94 µM,–
C[C@]12CCC3C(CC[C@H]4C[C@H](O)CC[C@]34C)C1CC[C@@H]2C(=O)CO (stereo partly specified),–,inactive: -17%
Oc1ccc2c3c1O[C@H]1c4[nH]c5ccccc5c4C[C@]4(O)[C@H](C2)N(CC2CC2)CC[C@@]314,–,inactive: -14.9%
COC(=O)c1cc2c(cn1)[nH]c1ccccc12,–,inactive: -15.1%
CC(N)C(O)c1ccc(O)c(O)c1 (stereo unspecified),–,inactive: -13.1%

Structure (SMILES),Potency,"activity, negative = inhibition"
CC1=NN=C(c2ccc(N)cc2)c2cc3c(cc2C1)OCO3,–,inactive: -12.1%
NC[C@H](CP(=O)(O)O)c1ccc(Cl)cc1,–,inactive: -7.66%
CN1CCC[C@H]1c1cccnc1,inactive,–
CC1OC(OC2C(O)CC(OC3C(O)CC(OC4CCC5(C)C(CCC6C5CCC5(C)C(C7=CC(=O)OC7)CCC65O)C4)OC3C)OC2C)CC(O)C1O (stereo unspecified),–,inactive: -22.5%
O=C1NCN(c2ccccc2)C12CCN(CCCOc1ccc(F)cc1)CC2,inactive,–
COC(=O)[C@@H]1C[C@@]1(C)[C@@H](NP(=O)(c1ccccc1)c1ccccc1)c1ccccc1,–,inactive: -1.6%
O=C(O)CNC(=O)C(CS)Cc1ccccc1 (stereo unspecified),–,inactive: -11.3%
Oc1c(Br)cc(Br)cc1Oc1ccc(Br)cc1Br,active: 31.6 µM,–
C/C(=C/C=C/[C@@H](C)C(=O)O)[C@H]1CN[C@H](C(=O)O)[C@H]1CC(=O)O,–,inactive: -8.62%
COc1ccc(CCCc2nnc(SCC(=O)Nc3ccc(C)c(C)c3)o2)cc1,–,inactive: -8.29%
N#CC(C#N)=Cc1cc(O)c(O)c([N+](=O)[O-])c1,active: 10 µM and active: 17.8 µM,–
C=CCN1CC[C@@]23c4c5ccc(O)c4O[C@H]2/C(=N\N=C2/CC[C@@]4(O)[C@H]6Cc7ccc(O)c8c7[C@@]4(CCN6CC=C)[C@@H]2O8)CC[C@]3(O)[C@@H]1C5,–,inactive: -14%
CNC(C)[C@@H](O)c1ccccc1 (stereo partly specified),–,inactive: -1.27%
CSc1ccc(C(c2c(O)c3ccccc3oc2=O)c2c(C)n(C)n(-c3ccccc3)c2=O)cc1 (stereo unspecified),–,inactive: -7.29%
CC(C)(O)[C@H]1O[C@H]2CC[C@@]3(C)[C@@](O)(CC[C@H]4Cc5c([nH]c6ccccc56)[C@@]43C)C2=CC1=O,–,inactive: -13.6%
COc1cc(CNC(=O)CCCC/C=C/C(C)C)ccc1O,inactive,–
CN1CCN(C(=O)O[C@H]2c3nccnc3C(=O)N2c2ccc(Cl)cn2)CC1,–,inactive: -3%
COc1ccc(-n2c(=S)[nH]c3c(sc(=S)n3-c3ccccc3)c2=O)c(OC)c1,active: 31.6 µM,–
CN(C)[C@@H]1C(=O)C(C(N)=O)=C(O)[C@@]2(O)C(=O)C3=C(O)c4c(O)cccc4[C@@](C)(O)C3CC12 (stereo partly specified),–,inactive: -9.02%
CC(CCC(=O)O)C1CCC2C3CC[C@H]4CC(O)CC[C@@]4(C)C3CC[C@@]12C (stereo partly specified),–,inactive: -16.6%
CC(=O)OC1CCC2(C)C3=C(CCC2C1(C)C)[C@@]1(C)CCC(C(C)CCC=C(C)C)[C@@]1(C)CC3 (stereo partly specified),–,inactive: -12.3%
CN1CC[C@@]2(c3cccc(O)c3)Cc3nc4ccccc4cc3C[C@H]2C1,–,inactive: -8.59%
CCn1c(NN=O)nc2ccccc21,active: 28.2 µM,–
Cc1ccc2cc3c(ccc4ccccc43)c3c2c1CC3,active: 15.8 µM,–
